Data published in the RNAGym collection of RNA variant scans (doi:10.7554/elife.90254).
The source gives no read counts; variants with many changes may rest on few reads.

B1: OR4K15 (parent)
chain: GUUAACGGUCAUAGGCCAUGGAAACUAGGAGCACCAUUUCGCUGCCAGUGAAGAAAUGAACAAAGAAAAUCUGGGCCAGGCAGGCAUCAAAAGAAAUAGUCUUGCGCUCAACCAGAAAGUCUGUAAUCAUUUUAAGGGUA

Variants of: B1
Test: self-cleavage, relative activity (ratio to wild type); higher = more cleavage; in vitro, sequencing; the parent is a self-cleaving ribozyme
For A11U U37C U39C A56G U133C A134U, the self-cleavage was 2.11. For A11U A36G U43C A134G, the self-cleavage was 1.16. In the case of A11U A63G A69G A135U, the self-cleavage is reported as 1.16. Work on A11U G83A G136U yielded a self-cleavage of 2.03. For A11G U43A G80A A126G, the self-cleavage was 0.18. A11G A59G A118G A129G gave a self-cleavage of 0.33. In the case of A11G A30G A140G, the self-cleavage is reported as 0.54. Variant A11G A47U A67G A94U A110G has a self-cleavage of 0.09. U12A U38C A114U showed a self-cleavage of 0.09. U12C A18U C105U A116G gave a self-cleavage of 0.07. A11G A56G A66G U70C A118G A135C gave a self-cleavage of 0.19. A11G A117U U122A showed a self-cleavage of 1.11. A11U A59G A111U gave a self-cleavage of 0.06. Variant U12A A62G U103C has a self-cleavage of 1.4. Work on A11G A27U A62G yielded a self-cleavage of 0.45. For U12C A18G G137A, the self-cleavage was 0.94. Work on A11G A24G A78U G106C yielded a self-cleavage of 0.03. In the case of A11G A60C A68G A95G, the self-cleavage is reported as 0.57. In the case of A11U U57A A69G, the self-cleavage is reported as 0.39. In the case of A11U C45U A64G A96G, the self-cleavage is reported as 1.17. A11G A24G U87A U108C A135G gave a self-cleavage of 0.01. Work on A11C A69G A86G yielded a self-cleavage of 0. Work on A11C A22U A30G A47U yielded a self-cleavage of 0.62. In the case of A11G A27U G31A A92G, the self-cleavage is reported as 1.16. Variant A11G G28A U108C U127C has a self-cleavage of 0.02. Work on A11G A18U U100A U103C yielded a self-cleavage of 0.1. U12A A78U A140G showed a self-cleavage of 0.26. Work on A11G A52G A94G U97C yielded a self-cleavage of 0.17. A11G A13G U39C A78G A94U C107G A116G showed a self-cleavage of 0.03. For A11G A47U A60G, the self-cleavage was 0.42. With C10U C42U A67G the self-cleavage was 0.76. A11G A51G A69U A129G gave a self-cleavage of 1.34. For A11C A55U U72C A110G U122C, the self-cleavage was 0.05. A11G U43G A51G A55G A68G A96U showed a self-cleavage of 1.54. With A11G A66G A67G A111G A116G the self-cleavage was 0.04. A11U A82G A111G showed a self-cleavage of 0.04. Work on A11G A24G U87A yielded a self-cleavage of 1.15. A11U U43C A78G U100C showed a self-cleavage of 0.37. U12A U87C A92G A135C gave a self-cleavage of 1.65. Work on A11U A23G A116C yielded a self-cleavage of 0.1. A11G A24G U38C A94U C128A gave a self-cleavage of 0.35. A11G U19A U102C showed a self-cleavage of 1.22. With A11G A129C G136A the self-cleavage was 0.59. For A11U C16U U19A G83A U100A G104U A117G U130C, the self-cleavage was 0. In the case of U12A U38C A47U U122C, the self-cleavage is reported as 0.95. With C10U A52G A90G the self-cleavage was 0.19. U12A C76U U103C showed a self-cleavage of 0.08. With C10U A92G A96G the self-cleavage was 1.93. Work on A11G U108C A114G A117G yielded a self-cleavage of 0. In the case of A11C U57G A60G U100A, the self-cleavage is reported as 0.34. A11U U19C A33U A56G A94G A110G showed a self-cleavage of 0.18. A11U A18G G75C A118U showed a self-cleavage of 0.06. With A11G C85U C112A the self-cleavage was 0.05. Variant A11G A82G A90G A134G has a self-cleavage of 0.2. Work on A11C A82G G84C yielded a self-cleavage of 0.1. Variant A11G A125G A126U has a self-cleavage of 0.92. C10U U19C A22G A23G U38C A59G U100C U120A gave a self-cleavage of 2.13. In the case of A11G A59G A98U A111U U130C, the self-cleavage is reported as 0.14. Variant A11G U19C A23U A47C A89U A92G has a self-cleavage of 1. A11G U39A A111G showed a self-cleavage of 0.02. A11U U38C U39C U100C gave a self-cleavage of 1.38. For A11G U37C A52U A68G U87C U130C, the self-cleavage was 0.46. Variant A11C A59G U70A A118G has a self-cleavage of 0.4. Work on A11G C42A A52G A95U A96G yielded a self-cleavage of 0.52. Variant A11G A30G A96G has a self-cleavage of 0.68. Variant A11G A52G A56C A96C has a self-cleavage of 1.21. A11U A36G A86U showed a self-cleavage of 0.81. For A11G G41A A96G, the self-cleavage was 1.52. In the case of A11G A23U A27G A67G A95G, the self-cleavage is reported as 0.91. Variant U12A A18G U37C has a self-cleavage of 1.15. Work on A11G A27G A117G yielded a self-cleavage of 0. Variant U12C A18G A22G U38C C85U U108C A140G has a self-cleavage of 0.01. A11C A18U U72A U100C gave a self-cleavage of 0.22. In the case of U12A G15A U102C, the self-cleavage is reported as 2.22. For A11G U38C A82U A95C, the self-cleavage was 0.1. Work on A11G U43A A55G yielded a self-cleavage of 1.05. A11G C45A A56G U131C gave a self-cleavage of 0.84. In the case of A11G A36G A98G, the self-cleavage is reported as 0.47. Work on C10U U87A A129G yielded a self-cleavage of 0.27. Work on A11G A23G G50U A55G A98G U124C yielded a self-cleavage of 0.23. A11U A22G C42U A69G A92G gave a self-cleavage of 1.02. With A11G C40U A64G A90G U127C the self-cleavage was 0.97. Work on A11G A52G U57A A114U yielded a self-cleavage of 0.06. Work on A11G A33G A94G yielded a self-cleavage of 0.75. Variant A11G A117G U132C has a self-cleavage of 0.86. For U12A A56G U103A U120C U133C, the self-cleavage was 0.81. Work on A11G U87C A96G G136A yielded a self-cleavage of 1.57. A11C U70C A89G G93A showed a self-cleavage of 0.26. For A11G A63G A90G G138U, the self-cleavage was 1.64. A11G A47G A60G A140G showed a self-cleavage of 0.51. A11U A23G U39C A63G gave a self-cleavage of 0.7. With A11G G29A A52G A67G A78G U87C the self-cleavage was 0.22. A11G A23G A52G showed a self-cleavage of 0.96. For U12A A36G A111C, the self-cleavage was 0.07. In the case of A11U A18C A55U U70C U124C, the self-cleavage is reported as 0.22. In the case of A11G A60G A69G, the self-cleavage is reported as 0.75. With A11G U19C A68U the self-cleavage was 1.01. A11G A114C U122C gave a self-cleavage of 0.03. Work on A11G A51G U70C A86G U87C C121U yielded a self-cleavage of 0.74. With A11U A18G U37C A47G A63U the self-cleavage was 1.17. A11G U37A A64G A78G showed a self-cleavage of 0.25. With A11G A52C A66G G123A the self-cleavage was 1.23. In the case of A11U A18G A62G U102A, the self-cleavage is reported as 1. With A11G U87A A118G the self-cleavage was 0.82. Variant A11G A24G A60G A90G C128G has a self-cleavage of 0.24. Work on A11U A62G U132C yielded a self-cleavage of 0.63. A11G U38C U39A gave a self-cleavage of 0. Variant A11G U39C U72A has a self-cleavage of 0.11. In the case of A11G U100C A125G, the self-cleavage is reported as 1.03. For U12A G31A U38C A96G, the self-cleavage was 1.54. A11G G41U U57C A134U gave a self-cleavage of 1.01. Variant A11U A13G A47G U87A U100C U108C has a self-cleavage of 0.09. U12A A64G A118G showed a self-cleavage of 1.18. For A11G U103G U108C, the self-cleavage was 0.08. Variant A11G A55G A134G has a self-cleavage of 0.87. Work on U12C A13G A55G U130C yielded a self-cleavage of 1.15. In the case of A11G A27G U57G, the self-cleavage is reported as 0.91. For A11G A27U U97C, the self-cleavage was 0.97. Variant A11G C61U U132C has a self-cleavage of 0.88. For A11G A27G U100A U102C, the self-cleavage was 1.78. Variant A11G A24G A86U U97C U139C has a self-cleavage of 0.97. Work on A11U A36G A114U yielded a self-cleavage of 0.2. C10U U87C A118G showed a self-cleavage of 0.34. Variant A11U G31A A110G U124C has a self-cleavage of 0.15. For A11C A47G A51G A62G U124C U127C, the self-cleavage was 0.38. For A11G G41A U132C, the self-cleavage was 0.76. For A11G U12G A33C A68G C77U U103A, the self-cleavage was 0.42. A11U U39A U57C showed a self-cleavage of 0.96. Work on A11U A55G A91G yielded a self-cleavage of 1.4. For U12A U37C U103C A116G, the self-cleavage was 0.26. For A11G A82C A90G, the self-cleavage was 0.17. With A11C A116G U124C the self-cleavage was 0.37. Variant A11G A24G A140G has a self-cleavage of 1.63. With A11G U49C A51G A86G the self-cleavage was 1.25. Variant A11G A56G A64G has a self-cleavage of 0.79. A11G A52G A117G gave a self-cleavage of 1.28. In the case of A11G G21A U57A A68G A116G, the self-cleavage is reported as 0.48. A11G C46U U127C showed a self-cleavage of 0.44. Work on A11C A67G A135G yielded a self-cleavage of 1.33. Variant A11U G115A U122C has a self-cleavage of 0.02. A11G A24C A54G A68G A89G showed a self-cleavage of 0.92. In the case of A11C A62U U103C A114U, the self-cleavage is reported as 0.16. With A11U A56G C81U A96G U120C the self-cleavage was 0.1. A11G G44A A62G A111G showed a self-cleavage of 0. In the case of A11G A24G A117G, the self-cleavage is reported as 0.82. Work on A11U A36C A111G U122C yielded a self-cleavage of 0.01. Work on U12C A18G A30G A52G yielded a self-cleavage of 0.61. With A11G A60G C61G A64G A92G the self-cleavage was 1.33. With A11U A59G A78G U127C the self-cleavage was 0.11. U12A A67G A98C A110G A118G gave a self-cleavage of 0.2. Variant C10U A13U A64G A91G has a self-cleavage of 0.66. A11G G75A C101U showed a self-cleavage of 0.09. For A11G A55G A62G, the self-cleavage was 0.61. Variant A11G A23G A59G U70C has a self-cleavage of 0.89. With A11U A68G U72C A82G A96G the self-cleavage was 0.23. A11U C34A A62G showed a self-cleavage of 1.75. A11G A56G A68G U70A A116G gave a self-cleavage of 0.6. Work on A11U U49G A55G A94G U100C U133A yielded a self-cleavage of 2.26. For A11G A68G A116G, the self-cleavage was 0.74. In the case of U12A A22G A98G, the self-cleavage is reported as 0.3. Work on A11G U43A A95G U102C yielded a self-cleavage of 0.84. A11G A22G A118G showed a self-cleavage of 1.06. For A11U U37C A89U A98G, the self-cleavage was 1.23. Work on U12C A13U A94G A117U yielded a self-cleavage of 0.18. A11U A18G A24G A54G A68G G79A showed a self-cleavage of 0.15. A11U A13G A67G U100C U131C gave a self-cleavage of 1.8. A11U A24G U103C A125G showed a self-cleavage of 0.12.
